The source gives no read counts; variants with many changes may rest on few reads.
B1: CPEB3 Ribozyme (parent)
chain: UAACAGGGGGCCACAGCAGAAGCGUUCACGUCGCAGCCCCUGUCAGAUUCUGGUGAAUCUGCGAAUUCUGCUGUAUAUCUC

Variants of: B1
Assay: self-cleavage, relative activity (ratio to wild type); higher = more cleavage; in vitro, sequencing
Procedure, shortened: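 Barcoded CPEB3 ribozyme mutants, produced by rounds of error-prone PCR, self-cleaved while being transcribed with T7 RNA polymerase for 5 hours at 37°C and during a subsequent 15 min DNase I step before EDTA was added. Sequencing of template-switched cDNA on Illumina gave cleaved and total reads, and DNA sequencing assigned barcodes to variants. Each variant's relative activity is its cleaved/total read fraction divided by the unmutated ribozyme's fraction, averaged across three batches. A variant needed a minimum of 5 reads.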

Row | Variant | self-cleavage
1 | UAACAGGGGGCCACAGCGGAAGCGUUCACGUCGCAGCCCCGGCCAGAUUCUGGUGAAUCUGCGAAUUCUGCUGUAUAUCUC | 0.46
2 | UAACAGGGGGCCACAGCGGAAGCGUUCACGUCGCAGCCCCGGUCAGACACUGGUGAAUCUGCGAAUUCUGCUGUAUACCUA | 0.2
3 | UAACAGGGGGCCACAGCGGAAGCGUUCACGUCGCAGCCCCUGACGGAUCCUGGUGAGUCAGCGAAUUCUGCUGUUUAUCUC | 0.06
4 | UAACAGGGGGCCACAGCGGAAGCGUUCACGUCGCAGCCCCUGACAGAUUCUGGUGGAUCUGCUAAUUCUGCUGUAUAUCUC | 0.74
5 | UAACAGGGGGCCACAGCGGAAGCGUUCACGUCGCAGCCCCUGACAGAUUCUGGUGAAUCUGCGAAUUCUGCCGCAUAUCUC | 0.91
6 | UAACAGGGGGCCACAGCGGAAGCGUUCACGUCGCAGCCCCUGCCAGGUCCUGGUGAAUUUGCGAAUACUGCUGUAUAUCUC | 0.07
7 | UAACAGGGGGCCACAGCGGAAGCGUUCACGUCGCAGCCCCUGCCAGAUUCUGGUGUACCUGCGAAUUCUGCUGAAUAUCUC | 0.07
8 | UAACAGGGGGCCACAGCGGAAGCGUUCACGUCGCAGCCCCUGCCAGAUUCUGGUGAAUCUGUGAAUUCUGCUGUAUAUCUC | 0.23
9 | UAACAGGGGGCCACAGCGGAAGCGUUCACGUCGCAGCCCCUGCCAGACUCUGGUGAAUCUGCGAAUUCUGCUGUAUAUCUC | 0.38
10 | UAACAGGGGGCCACAGCGGAAGCGUUCACGUCGCAGCCCCUGCCAGACUCUGGUGAAUCUGUGAAUUCUGCUGUAUAUCUC | 0.14
11 | UAACAGGGGGCCACAGCGGAAGCGUUCACGUCGCAGCCCCUGCCAGAUUCAGGUGAAUCUGCGAAUUCUGCUGUAUAUCUC | 0.39
12 | UAACAGGGGGCCACAGCGGAAGCGUUCACGUCGCAGCCCCUGGCAGAUUCUGGUGAAUCUGCGAAUUCUGCAGUAUACCUC | 0.15
13 | UAACAGGGGGCCACAGCGGAAGCGUUCACGUCGCAGCCCCUGUCAGAAUCUGGUGGAUCUGCGAAUUCUGCUGUAUAUCUC | 0.09
14 | UAACAGGGGGCCACAGCGGAAGCGUUCACGUCGCAGCCCCUGUCAGAAUCAGGUGAAUCUGCGAAUACUGCUGUAUUUCCC | 0.13
15 | UAACAGGGGGCCACAGCGGAAGCGUUCACGUCGCAGCCCCUGUCAGACUCUGGUGGAUCCGCGAAUUCUGCUGUAUAUCCC | 0.13
16 | UAACAGGGGGCCACAGCGGAAGCGUUCACGUCGCAGCCCCUGUCAGACUCUGGUGGAUCUGCGAAUUCCGCAGUAUAUCUC | 0.21
17 | UAACAGGGGGCCACAGCGGAAGCGUUCACGUCGCAGCCCCUGUCAGACUCUGGUGUAUCUGCGUACUCUGCAGUAUAUCUC | 0.11
18 | UAACAGGGGGCCACAGCGGAAGCGUUCACGUCGCAGCCCCUGUCAGACUCUGGUGAGUCUGCGAAUUCUGCUGUAUAUCUC | 0.79
19 | UAACAGGGGGCCACAGCGGAAGCGUUCACGUCGCAGCCCCUGUCAGACUCUGGUGAAUCUGCGGAUUCUGCUGUAUAUCUC | 0.21
20 | UAACAGGGGGCCACAGCGGAAGCGUUCACGUCGCAGCCCCUGUCAGACUCUGGUGAAUCUGCGAAUUCUGCUGUAUUCCUC | 0.24
21 | UAACAGGGGGCCACAGCGGAAGCGUUCACGUCGCAGCCCCUGUCAGACUCUAGUGAAUCUGCGAAUUCUGCUGUAUAUCUC | 0.21
22 | UAACAGGGGGCCACAGCGGAAGCGUUCACGUCGCAGCCCCUGUCAGACCCCGGUGAAUCAGCGAAUUCUGCUGUAUAUCUC | 0.11
23 | UAACAGGGGGCCACAGCGGAAGCGUUCACGUCGCAGCCCCUGUCAGACUCCGGUGACUCUGCGAACUCUGCUGUAUAUCUC | 0.12

Row | Variant | self-cleavage
24 | UAACAGGGGGCCACAGCGGAAGCGUUCACGUCGCAGCCCCUGUCAGACUCUGGUGAACCUGCGAAUUCUGCUGUAUAUCUC | 0.29
25 | UAACAGGGGGCCACAGCGGAAGCGUUCACGUCGCAGCCCCUGUCAGACUCUGGUGAACCUGCGAAUUCCGCCGUAUACCUC | 0.15
26 | UAACAGGGGGCCACAGCGGAAGCGUUCACGUCGCAGCCCCUGUCAGACUCUGGUGAAUCCGCGAAUUCUGCUGUAUAUCUC | 0.06
27 | UAACAGGGGGCCACAGCGGAAGCGUUCACGUCGCAGCCCCUGUCAGACUCUGGUGAAUCUGCGAACUCUGCUGUAUAUCUC | 0.23
28 | UAACAGGGGGCCACAGCGGAAGCGUUCACGUCGCAGCCCCUGUCAGACUCUGGUGAAUCUGCGAAUUCUGCUGCACAUCUC | 0.4
29 | UAACAGGGGGCCACAGCGGAAGCGUUCACGUCGCAGCCCCUGUCAGACUCUGGUGAAUCUGCGAAUUCUGCUGUAUACCUC | 0.39
30 | UAACAGGGGGCCACAGCGGAAGCGUUCACGUCGCAGCCCCUGUCAGAUACUGGUGGAUCUGCGAAUUCUGCUGUAUAUCUC | 0.19
31 | UAACAGGGGGCCACAGCGGAAGCGUUCACGUCGCAGCCCCUGUCAGAUACUGGUGGAUCCGCGGAUUCUGCUGUAUAUCUC | 0.11
32 | UAACAGGGGGCCACAGCGGAAGCGUUCACGUCGCAGCCCCUGUCAGAUACUGGUGAAUCUGCGAAUUCUGCCGUAUACCUC | 0.3
33 | UAACAGGGGGCCACAGCGGAAGCGUUCACGUCGCAGCCCCUGUCAGAUCCUGGUGAGUCUGCGAAUUCUGCUGUAUAUCUC | 0.22
34 | UAACAGGGGGCCACAGCGGAAGCGUUCACGUCGCAGCCCCUGUCAGAUCCAGGUGAAUCUGCGGAUUCUGCUGUAUAUCUC | 0.16
35 | UAACAGGGGGCCACAGCGGAAGCGUUCACGUCGCAGCCCCUGUCAGAUCCUGGUGAACCUGCGAAUUCUGCUGUAUAUCUC | 0.06
36 | UAACAGGGGGCCACAGCGGAAGCGUUCACGUCGCAGCCCCUGUCAGAUCCUGGUGAAUCCGCGAAUUCUGCUGUAUAUCUC | 0.37
37 | UAACAGGGGGCCACAGCGGAAGCGUUCACGUCGCAGCCCCUGUCAGAUCCUGGUGAAUCUGCGAAUCCUGCUGUAUAUCUC | 0.11
38 | UAACAGGGGGCCACAGCGGAAGCGUUCACGUCGCAGCCCCUGUCAGAUCCUGGUGAAUCUGCGAAUUCUGCUGUAUACCUC | 0.17
39 | UAACAGGGGGCCACAGCGGAAGCGUUCACGUCGCAGCCCCUGUCAGAUGCUGGUGAAUCUGCGAAUUCUGCUGUAUACCUC | 0.87
40 | UAACAGGGGGCCACAGCGGAAGCGUUCACGUCGCAGCCCCUGUCAGAUUCAGGUGAGUCUGCGAAUUCUGCUGUACAUCUC | 0.25
41 | UAACAGGGGGCCACAGCGGAAGCGUUCACGUCGCAGCCCCUGUCAGAUUCAGGUGAUUCUGCGAAUUCUGCAGUAUACCUC | 0.1
42 | UAACAGGGGGCCACAGCGGAAGCGUUCACGUCGCAGCCCCUGUCAGAUUCAGGUGAAUCUGCGAGUUCUGCUGAAUAUCUC | 0.41
43 | UAACAGGGGGCCACAGCGGAAGCGUUCACGUCGCAGCCCCUGUCAGAUUCAGGUGAAUCUGCGAAUUCUGCUGUAUUUCUC | 0.79
44 | UAACAGGGGGCCACAGCGGAAGCGUUCACGUCGCAGCCCCUGUCAGAUUCAGGUGAAUCAGCGAAUGCUGCUGUAUAUCUC | 0.21
45 | UAACAGGGGGCCACAGCGGAAGCGUUCACGUCGCAGCCCCUGUCAGAUUCAGGUGAAUCCGCGAACUCUGCUGUAUAUCUC | 0.29
46 | UAACAGGGGGCCACAGCGGAAGCGUUCACGUCGCAGCCCCUGUCAGAUUCAGGUGAAUCUGCGAACUCUGCUGUAUAUCUC | 0.25

Row | Variant | self-cleavage
47 | UAACAGGGGGCCACAGCGGAAGCGUUCACGUCGCAGCCCCUGUCAGAUUCAGGUGAAUCUGCGAACACUGCUGUAUAUCUC | 0.15
48 | UAACAGGGGGCCACAGCGGAAGCGUUCACGUCGCAGCCCCUGUCAGAUUCAGGUGAAUCUGCGAAUUCUGCAGUAUAUCUC | 0.32
49 | UAACAGGGGGCCACAGCGGAAGCGUUCACGUCGCAGCCCCUGUCAGAUUCCGGUGGAUCUGCGAAUUCUGCUGUAUAUCUC | 0.25
50 | UAACAGGGGGCCACAGCGGAAGCGUUCACGUCGCAGCCCCUGUCAGAUUCCGGUGAAUCUGCGUAUUCUGCUGUAUAUCUC | 0.42
51 | UAACAGGGGGCCACAGCGGAAGCGUUCACGUCGCAGCCCCUGUCAGAUUCCGGUGAAUCUGCGAUUUCCGCUGUAUAUCUC | 0.16
52 | UAACAGGGGGCCACAGCGGAAGCGUUCACGUCGCAGCCCCUGUCAGAUUCCGGAGAAUAUGCGAAUUCUGCUGUAUAUCUC | 0.31
53 | UAACAGGGGGCCACAGCGGAAGCGUUCACGUCGCAGCCCCUGUCAGAUUCUGGAGAGUCAGCGAAUUCUGCUGUAUAUCUC | 0.37
54 | UAACAGGGGGCCACAGCGGAAGCGUUCACGUCGCAGCCCCUGUCAGAUUCUGGAGAAUCAGCGAAUUCUGCUGUAUAUCUC | 0.17
55 | UAACAGGGGGCCACAGCGGAAGCGUUCACGUCGCAGCCCCUGUCAGAUUCUGGCGAACCUGCGAAUUCUGCUGUAUAUCUC | 0.25
56 | UAACAGGGGGCCACAGCGGAAGCGUUCACGUCGCAGCCCCUGUCAGAUUCUGGCGAACCCGUGAAUUCUGCUGUAUACCUC | 0.19
57 | UAACAGGGGGCCACAGCGGAAGCGUUCACGUCGCAGCCCCUGUCAGAUUCUGGCGAACCUGCGAAUUCGGCCGUAUAUUUC | 0.06
58 | UAACAGGGGGCCACAGCGGAAGCGUUCACGUCGCAGCCCCUGUCAGAUUCUGGCGAAUCAGCGAACUCUGCUGUAUAUCUC | 0.23
59 | UAACAGGGGGCCACAGCGGAAGCGUUCACGUCGCAGCCCCUGUCAGAUUCUGGCGAAUCUGCGAAUCCUGCUGUAUAGCUC | 0.13
60 | UAACAGGGGGCCACAGCGGAAGCGUUCACGUCGCAGCCCCUGUCAGAUUCUGGGGAAUCUGCGAACUCUGCUGUAUAUCUC | 0.29
61 | UAACAGGGGGCCACAGCGGAAGCGUUCACGUCGCAGCCCCUGUCAGAUUCUGGUGAACCUGCGAAUUCUGCUGUGCAUCUC | 0.13
62 | UAACAGGGGGCCACAGCGGAAGCGUUCACGUCGCAGCCCCUGUCAGAUUCUGGUGAACCCGCGAAUUCGGCUGUAUAUCUC | 0.21
63 | UAACAGGGGGCCACAGCGGAAGCGUUCACGUCGCAGCCCCUGUCAGAUUCUGGUGAACCUGCGAAUACUGCUGUAUAUCUC | 0.23
64 | UAACAGGGGGCCACAGCGGAAGCGUUCACGUCGCAGCCCCUGUCAGAUUCUGGUGAACCUGCGAAUUCUGCAGUAUAACUC | 0.17
65 | UAACAGGGGGCCACAGCGGAAGCGUUCACGUCGCAGCCCCUGUCAGAUUCUGGUGAACCUGCGAAUUCUGCGGUAUAUCUC | 0.13
66 | UAACAGGGGGCCACAGCGGAAGCGUUCACGUCGCAGCCCCUGUCAGAUUCUGGUGAACCUGCGAAUUCUGCUGUAUACCCC | 0.19
67 | UAACAGGGGGCCACAGCGGAAGCGUUCACGUCGCAGCCCCUGUCAGAUUCUGGUGAAUCAGCGAAUUCUGCUGUGUAUCUC | 0.34
68 | UAACAGGGGGCCACAGCGGAAGCGUUCACGUCGCAGCCCCUGUCAGAUUCUGGUGAAUCAGCGAAUUUUGCUGUAUAUCUC | 0.23

Reference: the RNAGym collection of RNA variant scans (doi:10.1093/nar/gkz1192)
